Assay results reported in the antibiotic and cytotoxicity screens of Wong et al. (2023).
This is one part of the list.

Legend:
[1] = test system: HSkMC (human skeletal muscle cells); assay: cytotoxicity call (relative viability < 0.9); details: 10 µM
[2] = test system: HepG2; assay: cytotoxicity call (relative viability < 0.9); details: 10 µM
[3] = test system: S. aureus RN4220; assay: growth inhibition call (relative growth <= 0.2); details: 50 µM

Row | SMILES | cytotoxicity call [1] | cytotoxicity call [2] | growth inhibition call [3]
1 | C[C@@H]1CN([C@@H](C)CO)C(=O)c2cc(-c3cccc(C(=O)N(C)C)c3)cnc2O[C@H]1CN(C)S(=O)(=O)c1ccccc1 | inactive | inactive | inactive
2 | CC(=O)N1CC2(CCN(CC(=O)N3CCOCC3)CC2)C[C@@H]1C(=O)O | inactive | inactive | inactive
3 | CCN(Cc1ccncc1)C(=O)C(CO)c1ccccc1 (stereo not given) | inactive | inactive | inactive
4 | C[C@H](CO)N1C[C@H](C)[C@H](CN(C)Cc2ccc3c(c2)OCO3)Oc2ccc(NC(=O)Nc3ccc(C(F)(F)F)cc3)cc2CC1=O | inactive | active | inactive
5 | CN1CCN(Cc2ccc(NC(=O)Nc3ccc(Oc4cc(NC(=O)C5CC5)ncn4)cc3)cc2C(F)(F)F)CC1 | active | active | inactive
6 | Cc1noc(C)c1S(=O)(=O)Nc1ccc2c(c1)C(=O)N([C@H](C)CO)C[C@@H](C)[C@H](CN(C)Cc1ccc(C(F)(F)F)cc1)OCCCC[C@H](C)O2 | inactive | active | inactive
7 | O=C1O[C@@H](c2ccccc2)[C@@H](c2ccccc2)N2[C@@H](c3ccc(O)cc3)[C@]3(C(=O)Nc4ccc(C#CCCO)cc43)[C@@H](C(=O)NC[C@H](O)c3ccccc3)[C@H]12 | inactive | inactive | inactive
8 | C[C@@H]1CN([C@H](C)CO)C(=O)c2cccc(NC(=O)Nc3ccc(C(F)(F)F)cc3)c2O[C@@H]1CN(C)C(=O)Nc1ccc(F)cc1 | inactive | inactive | active
9 | CO[C@H]1CN(C)C(=O)c2cc(NC(C)=O)ccc2OC[C@H](C)N(S(=O)(=O)c2cn(C)cn2)C[C@@H]1C | inactive | inactive | inactive
10 | O=C(C1=C[C@@H](c2ccc(Br)cc2)C[C@@H](OCc2ccc(CO)cc2)O1)N1CCCCCCC1 | inactive | inactive | inactive
11 | C[C@H]1CCCCO[C@H](CN(C)S(=O)(=O)c2ccc(Cl)cc2)[C@@H](C)CN([C@@H](C)CO)C(=O)c2cc(NC(=O)Cc3ccccc3)ccc2O1 | inactive | active | inactive
12 | CCCNC(=O)COc1cccc([C@@H](CCc2ccc(OC)c(OC)c2)OC(=O)[C@@H]2CCCCN2C(=O)C(=O)C(C)(C)CC)c1 | inactive | active | inactive
13 | C[C@@H]1CN([C@@H](C)CO)C(=O)Cc2cc(NS(=O)(=O)c3cccs3)ccc2O[C@@H]1CN(C)Cc1ccc(Oc2ccccc2)cc1 | inactive | inactive | inactive
14 | C[C@@H]1CN([C@H](C)CO)C(=O)c2cc(NS(C)(=O)=O)ccc2O[C@@H]1CN(C)S(=O)(=O)c1ccccc1 | inactive | inactive | inactive
15 | C[C@H](CO)N1C[C@H](C)[C@H](CN(C)S(=O)(=O)c2cccs2)Oc2ncc(-c3ccccc3)cc2C1=O | inactive | inactive | inactive
16 | O=C(CCCCCNC(=O)OC[C@]12N=C3SCC(=O)N3[C@H](c3ccccc3O1)[C@H]2COC(=O)c1ccccc1)NO | inactive | inactive | inactive
17 | C/C=C/c1cnc2c(c1)C(=O)N([C@H](C)CO)C[C@@H](C)[C@@H](CN(C)S(=O)(=O)c1ccc(OC)cc1)O2 | inactive | inactive | inactive
18 | C[C@H](CO)N1C[C@H](C)[C@H](CN(C)CC2CC2)OCCCC[C@H](C)Oc2ccc(NC(=O)NC3CCCCC3)cc2C1=O | inactive | inactive | inactive
19 | CC(=O)Oc1cc2c(c(C)c1OC(C)=O)CC=C1[C@@]2(C)CC[C@@]2(C)[C@H]3C[C@](C)(C(=O)O)CC[C@]3(C)CC[C@]12C | active | active | active
20 | C[C@H](CO)N1C[C@H](C)[C@@H](CN(C)Cc2ccccc2)Oc2c(NC(=O)c3cnccn3)cccc2C1=O | inactive | inactive | inactive
21 | C[C@@H]1CN([C@H](C)CO)C(=O)c2cc(NS(=O)(=O)c3ccccc3)ccc2O[C@H]1CN(C)S(=O)(=O)c1ccccc1 | inactive | inactive | inactive
22 | CCN(CC)CCNC(=O)c1c(C)[nH]c(/C=C2/C(=O)Nc3ccc(-c4csc(-c5ccccc5)n4)cc32)c1C | active | active | inactive
23 | Cn1cc(N2C[C@]3(CCN(CCO)C3)CC2=O)cn1 | inactive | inactive | inactive
24 | C[C@@H]1CCCCO[C@@H](CN(C)S(=O)(=O)c2ccccc2)[C@H](C)CN([C@@H](C)CO)C(=O)c2cc(NC(=O)Nc3ccc4c(c3)OCO4)ccc2O1 | inactive | inactive | inactive
25 | C[C@@H]1CN([C@H](C)CO)C(=O)c2cc(NC(=O)NC3CCCCC3)ccc2O[C@@H]1CN(C)Cc1ccc(Cl)c(Cl)c1 | inactive | inactive | inactive
